What was measured:
[1] = system: transgenic Brassica napus plants; assay: Dicamba tolerance in R0 Brassica napus, greenhouse; details: R0 plants with one copy of the transgene; dicamba 1 lb ae/acre; 14 to 21 days
Description: Transgenic Brassica napus plants were produced using three different plant transformation vectors each comprising a DNA construct containing one of three different CTPs operably linked to DMO operably linked to a promoter. Brassica napus variety 65037 Restorer line was used for Agrobacterium-mediated transformation and R0 plants were grown in the greenhouse. Unique events were screened for the copy number of the transgene. R0 plants with one copy of the transgene were selfed and R1 seed collected.
Dicamba tolerance was assessed using R0 plants with one copy of transgene with vector backbone or two copies of transgene. Dicamba tolerance was designated as dicamba injury of 20% or less under greenhouse conditions. R0 events in pots were divided into three groups and dicamba (Clarity®) was applied at one of three rates: (1) no dicamba, (2) 1 lb ae/acre dicamba (2× rate), or (3) 2 lb ae/acre dicamba (4× rate). Transgenic plants were sprayed and injury ratings were recorded 21 days later.
Dicamba tolerance was assessed on R0 plants with a one copy of the transgene. Plants were sprayed in the greenhouse with dicamba (Clarity) at 1 lb ae/acre (2× rate), and dicamba tolerance was determined 14 to 21 days later.

[2] = system: transgenic F1 maize plants expressing H_N10; assay: F1 maize greenhouse S-3100 tolerance; format: in vivo; details: 40 grams/ha S-3100 at V3; rated seven days after treatment
Description: For maize in planta testing, maize (LH244) was transformed using Agrobacterium tumefaciens and standard methods known in the art. […] The plants were treated with 40 grams/ha S-3100 at the V3 growth stage and injury ratings were taken seven days after treatment.

[3] = system: transgenic F1 maize plants expressing H_N10; assay: Efficacy field trial of F1 maize containing PPO H_N10 (S-3100); format: in vivo
Description: This F1 population was segregating (50% hemizygous and 50% null) and selection for transgenic plants was not conducted prior to injury ratings. The overall average injury ratings for such a population are expected to be higher than a homogenous transgenic population since it is difficult to discern non-transgenic plants from transgenic plants. The trials were conducted at two locations with two replicates and 3 treatments per construct. Non-transgenic maize plants were used as a negative control. The herbicide application treatments were as follows: Treatment 1 was 0.036 lb ai/acre S-3100 applied at V2 followed by (fb) V4 fb V8; Treatment 2: was 0.072 lb ai/acre S-3100 applied at V2 fb V4 fb V8; Treatment 3: was 0.144 lb ai/acre S-3100 applied at V2 fb V4 fb V8. Crop Injury Percent ratings were assessed at the V2 growth stage (CIPV2) and at the V4 growth stage (CIPV4) at 5 to 7 days after treatment (the error V2 and error V4 are half of the least significant difference (LSD)). The crop injury ratings were combined for both locations.

[4] = Trt 1: 0.036 lb ai/acre S-3100 at V2 fb V4 fb V8
[5] = Trt 1: 0.036 lb ai/acre S-3100 at V2 fb V4 fb V8, segregating F1, 5 to 7 days after treatment
[6] = Trt 2: 0.072 lb ai/acre S-3100 at V2 fb V4 fb V8
[7] = Trt 3: 0.144 lb ai/acre S-3100 at V2 fb V4 fb V8

## RbcS (SEQ ID NO: 5): Ps.RbcS-3C chloroplast transit peptide, SEQ ID NO:5 (MASMISSSAVTTVSRASRGQSAAMAPFGGLKSMTGFPVRKVNTDITSITSNGGRVKC; listed as Pisum sativum) [reference compound]
[1]
  2X Tolerant events: 13/17

B1: Construct 6: maize construct: APG6 (SEQ ID NO:1) operably linked to PPO H_N10 (SEQ ID NO:43) (protein, listed as Arabidopsis thalinana, listed as Escherichia coli)
chain: MATATTTATAAFSGVVSVGTETRRIYSFSHLQPSAAFPAKPSSFKSLKLKQSARLTRRLDHRPFVVRCMKTLILFSTRDGQTREIASYLASELKELGIQADVANVHRIEEPQWENYDRVVIGASIRYGHYHSAFQEFVKKHATRLNSMPSAFYSVNLVARKPEKRTPQTNSYARKFLMNSQWRPDRCAVIAGALRYPRYRWYDRFMIKLIMKMSGGETDTRKEVVYTDWEQVANFAREIAHLTDKPTLK
[2]
  events producing highly tolerant plants (10% or less injury): 13 out of 18
[3]; [4]
  CIPV4: 0%
[3]; [5]
  CIPV2: 37.5%
[3]; [6]
  CIPV2: 37.5%
  CIPV4: 0%
[3]; [7]
  CIPV2: 50%
  CIPV4: 0%

B2: Construct 16: maize construct: 12G088600TP (SEQ ID NO:38) operably linked to PPO H_N10 (SEQ ID NO:43) (protein, listed as Gossypium raimondii, listed as Escherichia coli)
chain: MLNIAPSCVLASGISKPVTKMASTENKDDHSSAKRMKTLILFSTRDGQTREIASYLASELKELGIQADVANVHRIEEPQWENYDRVVIGASIRYGHYHSAFQEFVKKHATRLNSMPSAFYSVNLVARKPEKRTPQTNSYARKFLMNSQWRPDRCAVIAGALRYPRYRWYDRFMIKLIMKMSGGETDTRKEVVYTDWEQVANFAREIAHLTDKPTLK
[2]
  events producing highly tolerant plants (10% or less injury): no events
[3]; [4]
  CIPV4: 98.5%
[3]; [5]
  CIPV2: 96.3%
[3]; [6]
  CIPV2: 99.5%
  CIPV4: 99.5%
[3]; [7]
  CIPV2: 99.5%
  CIPV4: 99.5%

B3: APG6: Arabidopsis thaliana albino and pale green (APG6) chloroplast transit peptide, SEQ ID NO:1, tested linked to DMO or PPO (protein, listed as Arabidopsis thalinana)
chain: MATATTTATAAFSGVVSVGTETRRIYSFSHLQPSAAFPAKPSSFKSLKLKQSARLTRRLDHRPFVVRC
[1]
  2X Tolerant events: 13/31

— patent publication US10563220B2, “Compositions and methods for efficient targeting of transgenes” (priority 2015, dated 2020)
